Measurements from article PMC4336329 (PLoS ONE, 2015).
The campaign covered roughly 310,000 compounds. About 2,200 (0.71%) showed an effect of 50% or more. Effects have a minus sign here. The list shows a part of the results.

These compounds were tested against human ether-à-go-go-related gene (hERG) potassium channel (human, UniProt Q12809) (assay: primary screen, population patch clamp on CHO cells stably expressing hERG).
Sequence of human ether-à-go-go-related gene (hERG) potassium channel (Q12809 whole entry, looked up): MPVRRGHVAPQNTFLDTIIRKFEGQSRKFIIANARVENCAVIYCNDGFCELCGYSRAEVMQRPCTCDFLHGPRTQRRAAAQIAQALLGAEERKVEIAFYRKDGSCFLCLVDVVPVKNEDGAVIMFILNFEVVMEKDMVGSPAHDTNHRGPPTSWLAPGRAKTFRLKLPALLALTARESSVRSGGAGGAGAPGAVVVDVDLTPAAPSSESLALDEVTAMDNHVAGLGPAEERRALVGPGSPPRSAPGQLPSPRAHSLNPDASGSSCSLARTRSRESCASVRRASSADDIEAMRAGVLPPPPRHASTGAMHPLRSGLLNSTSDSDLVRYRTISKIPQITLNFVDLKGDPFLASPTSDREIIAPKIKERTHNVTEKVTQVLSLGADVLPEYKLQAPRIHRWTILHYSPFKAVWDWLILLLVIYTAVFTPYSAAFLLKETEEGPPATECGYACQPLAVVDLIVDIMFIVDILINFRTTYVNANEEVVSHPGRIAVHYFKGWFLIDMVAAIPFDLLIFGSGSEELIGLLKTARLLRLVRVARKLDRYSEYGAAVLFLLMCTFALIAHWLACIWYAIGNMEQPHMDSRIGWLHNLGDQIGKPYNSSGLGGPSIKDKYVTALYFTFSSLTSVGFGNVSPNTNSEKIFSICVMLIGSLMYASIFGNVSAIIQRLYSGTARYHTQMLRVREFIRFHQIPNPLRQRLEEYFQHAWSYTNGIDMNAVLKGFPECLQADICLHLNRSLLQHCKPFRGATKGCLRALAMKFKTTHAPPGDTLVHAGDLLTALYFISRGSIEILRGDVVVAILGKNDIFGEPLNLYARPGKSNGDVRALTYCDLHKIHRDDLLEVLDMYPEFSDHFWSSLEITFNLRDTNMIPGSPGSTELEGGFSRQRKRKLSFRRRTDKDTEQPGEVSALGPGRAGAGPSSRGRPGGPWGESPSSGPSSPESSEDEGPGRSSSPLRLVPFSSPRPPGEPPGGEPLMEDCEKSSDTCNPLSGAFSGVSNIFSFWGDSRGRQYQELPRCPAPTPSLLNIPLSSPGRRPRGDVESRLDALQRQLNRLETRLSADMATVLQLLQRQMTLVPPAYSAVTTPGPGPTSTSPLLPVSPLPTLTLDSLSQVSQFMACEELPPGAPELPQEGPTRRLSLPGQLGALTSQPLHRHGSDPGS

First: CCCCCn1c(Sc2ncccn2)nc2c1c(=O)[nH]c(=O)n2C
Second: CCc1noc(C)c1C(=O)N(Cc1ccccc1)c1c(N)n(CCOC)c(=O)[nH]c1=O
The “hERG current change (%, negative = inhibition) at 1uM” value of the first is lower: 4.65% for the first, 12.1% for the second.

Going from `COc1ccc(N(C(=O)CNC(=O)c2ccco2)C(C(=O)NC2CCCC2)c2ccc(C)o2)cc1` (stereo not drawn) to `COc1ccc(S(=O)(=O)NC(CC(=O)N2CCc3ccccc32)c2ccco2)cc1` (stereo not drawn), the “hERG current change (%, negative = inhibition) at 1uM” value rises from 8.92% to 14.7%.

First: CN(CC(=O)Nc1cccnc1)S(=O)(=O)c1ccc(Br)cc1
Second: COc1ccc(N(CC(=O)Nc2cccc(N(C)S(C)(=O)=O)c2)S(=O)(=O)c2ccc(C)cc2)cc1
The “hERG current change (%, negative = inhibition) at 1uM” value of the first is lower: 3.03% for the first, 17.3% for the second.

Compared with `O=C(O)c1ccc2c(c1)C(=O)N(Cc1ccc3c(c1)OCO3)C2=O`, `Cc1ccc(S(=O)(=O)N2CCOCC2)cc1C(=O)OCC(=O)NCc1ccc2c(c1)OCO2` is lower in “hERG current change (%, negative = inhibition) at 1uM” value: 1.76% for the first, -12.8% for the second.

Going from `CCOc1cccc(C(=O)Nc2ccc3oc(Cc4ccc(Cl)cc4)nc3c2)c1` to `COc1cccc(NC(=O)c2cc3ccccc3cc2OC)c1`, the “hERG current change (%, negative = inhibition) at 1uM” value rises from 4.26% to 16.5%.

Compared with `N=c1c2c3c(sc2nc2n1CCCCC2)CCCCC3`, `Cn1c(CCN2CCCCC2)nc2cc(NC(=O)NC3CCCCC3)ccc21` is higher in “hERG current change (%, negative = inhibition) at 1uM” value: -9.94% for the first, 7.55% for the second.

First: Cn1c(=O)n(C)c2cc(S(=O)(=O)NCCOCCO)ccc21
Second: COc1ccccc1C(=O)NCC(=O)NCc1cc(=O)n(C)c(=O)n1C
The “hERG current change (%, negative = inhibition) at 1uM” value of the first is lower: 8.12% for the first, 19.7% for the second.

First: COc1ccccc1N1CCN(Cc2ccc3c(c2)OCO3)CC1
Second: Cn1ccnc1SCC(=O)Nc1ccc2c(c1)OCO2
The “hERG current change (%, negative = inhibition) at 1uM” value of the first is lower: 2.73% for the first, 11.5% for the second.

Compared with `Cc1ccsc1C1Nc2ccc3ncccc3c2C2=C1C(=O)CCC2` (stereo not drawn), `Cc1ccc(S(=O)(=O)N(C(=O)c2ccncc2)c2ccc3oc4c(c3c2)CCCC4)cc1[N+](=O)[O-]` is higher in “hERG current change (%, negative = inhibition) at 1uM” value: 0.626% for the first, 19.2% for the second.

Going from `COc1ccc(CNCC(O)(c2ccccc2)c2ccc(F)cc2)cc1OC` (stereo not drawn) to `CC(NC(=O)Cc1ccc(F)cc1)c1ccccc1` (stereo not drawn), the “hERG current change (%, negative = inhibition) at 1uM” value falls from -8.9% to -10.8%.

Going from `Cc1cc(C(=O)CSc2nnc(-c3ccc(Cl)cc3)n2CC2CCCO2)c(C)n1C` (stereo not drawn) to `COc1cc(C(=O)NCC2CCCO2)ccc1OCc1ccc(Cl)cc1Cl` (stereo not drawn), the “hERG current change (%, negative = inhibition) at 1uM” value rises from -2.88% to 8.85%.

Going from `CCS(=O)(=O)CCSc1nc2c(cc1C#N)CCCC2` to `O=C(N/N=C/c1ccc(O)cc1)c1csc2c1CCCC2`, the “hERG current change (%, negative = inhibition) at 1uM” value falls from 7.3% to -4.91%.

Going from `COc1ccc(SCC2CN(C)CCC2c2ccc(F)cc2)cc1.Cl` (stereo not drawn) to `O=C(c1ccco1)N1CCN=C1SCc1ccc(F)cc1`, the “hERG current change (%, negative = inhibition) at 1uM” value falls from 8.45% to 6.49%.

Compared with `O=C(NC1CCCC1)C(c1ccccc1)N(C(=O)c1csnn1)C1CCCC1` (stereo not drawn), `CS(=O)(=O)N(C(=O)NC(=O)NC1CCS(=O)(=O)C1)C1CCCCC1` (stereo not drawn) is higher in “hERG current change (%, negative = inhibition) at 1uM” value: -2.16% for the first, 2.95% for the second.

Going from `Cc1cc(NC(=O)C(=O)NCCN2CCN(S(C)(=O)=O)CC2)ccc1Br` to `CN1CCN(S(=O)(=O)c2ccc(NC(=O)Nc3cccc(Cl)c3)cc2)CC1`, the “hERG current change (%, negative = inhibition) at 1uM” value rises from 5.62% to 12.7%.

First: CSc1ccccc1C(=O)Nc1cccc(C(C)O)c1 (stereo not drawn)
Second: O=C(COc1ccccc1)Nc1ccc2[nH]ncc2c1
The “hERG current change (%, negative = inhibition) at 1uM” value of the first is lower: 4.97% for the first, 17.6% for the second.

First: COc1ccccc1-c1nnc(SCC(=O)Nc2oc(C)c3c(C)n[nH]c(=O)c23)n1C
Second: C=CCn1nnnc1SCC(=O)Nc1ccccc1C(=O)OC
The “hERG current change (%, negative = inhibition) at 1uM” value of the first is higher: 20.9% for the first, 3.49% for the second.

Compared with `C#CCNC(=O)C1=C[C@@H](C2CC2)C[C@@H](OCCCCO)O1`, `CC1CCN(c2c(NCC3CCC(C(=O)NCc4ccc(F)cc4)CC3)c(=O)c2=O)CC1` (stereo not drawn) is lower in “hERG current change (%, negative = inhibition) at 1uM” value: 12.6% for the first, 2.08% for the second.

First: Oc1ccc(N2CCN(C(c3cccnc3)c3nnnn3Cc3ccccc3)CC2)cc1 (stereo not drawn)
Second: Cl.Oc1ccc(C(c2nnnn2C2CCCC2)N2CCc3ccccc3C2)cc1 (stereo not drawn)
The “hERG current change (%, negative = inhibition) at 1uM” value of the first is lower: 1.43% for the first, 7.87% for the second.

Compared with `CCc1ccc(NC(=O)Cn2c(=O)n(CCCC(=O)NCc3ccco3)c(=O)c3ccccc32)cc1`, `Cc1ccc(C(=O)Cn2c(C(=O)/C=C/c3ccccc3)nc3ccccc32)cc1` is lower in “hERG current change (%, negative = inhibition) at 1uM” value: 4.77% for the first, -7.28% for the second.

Compared with `COc1ccccc1C(CNc1ccc(S(=O)(=O)N2CCCC2)cc1[N+](=O)[O-])N(C)C` (stereo not drawn), `O=C(COC(=O)c1ccc(CO)cc1)c1ccc(S(=O)(=O)N2CCCCC2)cc1` is higher in “hERG current change (%, negative = inhibition) at 1uM” value: 15.8% for the first, 18% for the second.

Compared with `Cc1cc2cc3c(cc2nc1SCC(=O)O)OCCO3`, `Cc1cc(NC(=O)c2ccc(N3C(=O)CCC3=O)cc2)no1` is higher in “hERG current change (%, negative = inhibition) at 1uM” value: 13.1% for the first, 18.3% for the second.

Compared with `c1ccc2sc(Sc3ncnc4sccc34)nc2c1`, `CCCc1[nH]n(-c2nc3ccccc3s2)c(=O)c1C=NCCCOC` is lower in “hERG current change (%, negative = inhibition) at 1uM” value: 9.34% for the first, -9.11% for the second.

Going from `CC1(C)CC(C(=O)NCCC(c2ccccc2)c2ccco2)CCO1` (stereo not drawn) to `CCCC(=O)C1=C(N(C)c2ccccc2)CC(C)(C)CC1=O`, the “hERG current change (%, negative = inhibition) at 1uM” value rises from 0.843% to 13.8%.

Going from `Cl.N=c1sccn1CC(=O)Nc1ccc(S(=O)(=O)N2CCOCC2)cc1` to `CCN1CCN(c2ccc([N+](=O)[O-])cc2S(=O)(=O)N2CCOCC2)CC1`, the “hERG current change (%, negative = inhibition) at 1uM” value falls from 12.3% to -5.9%.

First: O=C(COc1cc(Cl)c(Cl)cc1Cl)Nc1ccncc1
Second: Cc1cc(C)c(OCC(=O)Nc2ccccn2)c([N+](=O)[O-])c1
The “hERG current change (%, negative = inhibition) at 1uM” value of the first is lower: 3.58% for the first, 4.53% for the second.

First: CN(C)c1cccc2c1c(NS(=O)(=O)c1cn(C)cn1)nn2C
Second: Cc1cc(C)n(Cc2ccc(NC(=O)c3c([N+](=O)[O-])c(C)nn3C)cc2)n1
The “hERG current change (%, negative = inhibition) at 1uM” value of the first is lower: 8.71% for the first, 9.05% for the second.

Going from `N#CCCn1cc(C(=O)Nc2ccc(F)cc2)c(-c2ccccc2)n1` to `Cc1ccc(/C=N/NC(=O)c2cc(-c3ccccc3)nc3ccccc23)o1`, the “hERG current change (%, negative = inhibition) at 1uM” value rises from 11.7% to 11.9%.

First: Cc1ccc(NC2=CC(=O)CC(c3ccccc3)C2)cc1 (stereo not drawn)
Second: COC(=O)[C@]1(S(=O)(=O)c2ccccc2)C[C@@H]2ON=C(c3ccc(OC)cc3)[C@@H]2C1
The “hERG current change (%, negative = inhibition) at 1uM” value of the first is higher: 14% for the first, 13.7% for the second.

First: O=C(NCCc1ccccn1)C(F)(F)C(F)(F)C(F)(F)C(F)(F)C(F)(F)C(F)(F)C(F)(F)C(F)F
Second: O=C(O)CC1(CC(=O)Nc2cc(C(F)(F)F)cc(C(F)(F)F)c2)CCCCC1
The “hERG current change (%, negative = inhibition) at 1uM” value of the first is lower: 13% for the first, 15.2% for the second.

Compared with `Cc1cc(C)n(CCCN2CCC(C(=O)Nc3cccc(-c4cccc(F)c4)c3)CC2)n1`, `Cc1ccnc(NC(=O)C2CCN(S(=O)(=O)c3cccc(C(F)(F)F)c3)CC2)c1` is higher in “hERG current change (%, negative = inhibition) at 1uM” value: -59.9% for the first, 19.5% for the second.

First: Cc1cccc(NC(=O)Cc2cccs2)n1
Second: Cc1cccc(C(=O)OCC(=O)Nc2nccs2)c1
The “hERG current change (%, negative = inhibition) at 1uM” value of the first is higher: 4.93% for the first, 1.03% for the second.

Going from `Cc1ccc(C(=O)NC(=S)N(C)C2CCCCC2)cc1` to `Cc1cnc(C(=O)NNC(=O)c2ccc(Br)cc2)cn1`, the “hERG current change (%, negative = inhibition) at 1uM” value falls from 6.79% to 2.55%.

Compared with `O=C(NCCc1c[nH]c2ccccc12)C(=O)NCC1OCCN1S(=O)(=O)c1cc(F)ccc1F` (stereo not drawn), `CCOC(=O)CNC(=O)c1cnc(Nc2ccccc2OC)c2ccccc12` is higher in “hERG current change (%, negative = inhibition) at 1uM” value: 8.19% for the first, 10.6% for the second.

Compared with `Cc1cccc(C)c1N(CC(=O)Nc1cc(Cl)ccc1Oc1ccccc1)S(C)(=O)=O`, `CS(=O)(=O)N(CC(O)Cn1c2ccccc2c2ccccc21)c1cccc2ccccc12` (stereo not drawn) is lower in “hERG current change (%, negative = inhibition) at 1uM” value: 6.49% for the first, 4.78% for the second.

Going from `CC(C)c1ccc(NC(=S)NNC(=O)c2cccnc2)cc1` to `CCN(CC(=O)Nc1ccc(OC)cc1)C(=O)CCS(=O)(=O)c1ccc(C)cc1`, the “hERG current change (%, negative = inhibition) at 1uM” value falls from 14.3% to 7.4%.

Going from `CCOC(=O)Cn1nc(C)n(-c2ccc(Br)cc2)c1=O` to `Clc1cc(Br)ccc1OCCCn1ccnc1`, the “hERG current change (%, negative = inhibition) at 1uM” value falls from 1.13% to -10.5%.

First: COc1ccc(N2C(=O)C3C4C=CC(c5ccccc5)(C3C2=O)C2C(=O)N(c3ccc(OC)cc3)C(=O)C42)cc1 (stereo not drawn)
Second: COc1cc(/C=C2/NC(=O)N(Cc3ccccc3F)C2=O)cc(OC)c1O
The “hERG current change (%, negative = inhibition) at 1uM” value of the first is lower: 8.21% for the first, 13.1% for the second.

First: CCN(CC)CCc1nc(-c2ccccc2)no1.O=C(O)CC(O)(CC(=O)O)C(=O)O
Second: CCCN(CCC)S(=O)(=O)c1ccc(C(=O)Nc2nc(-c3ccccc3)c(C(=O)OCC)s2)cc1
The “hERG current change (%, negative = inhibition) at 1uM” value of the first is lower: 1.1% for the first, 2.08% for the second.

Compared with `COc1ccccc1NC(=O)COc1cc(Br)c(CNCCCN2CCOCC2)cc1OC`, `CCOc1cc(S(=O)(=O)NCc2ccccc2)c(OCC)cc1-n1cnnn1` is lower in “hERG current change (%, negative = inhibition) at 1uM” value: 1.42% for the first, -2.65% for the second.

Compared with `Cn1nnnc1NCc1ccc(Cl)cc1`, `Cl.Nn1cnnc1N/N=C/c1ccc(Cl)cc1Cl` is higher in “hERG current change (%, negative = inhibition) at 1uM” value: 9.28% for the first, 9.63% for the second.

Going from `CN1CCN(c2ncnc3c2[nH]c2ccc(F)cc23)CC1` to `Cc1cc(-c2n[nH]c(=S)n2/N=C/C=C/c2ccccc2)n[nH]1`, the “hERG current change (%, negative = inhibition) at 1uM” value rises from 0.787% to 8.99%.

Compared with `Cc1ccccc1OCc1nc2ccccc2c(=O)n1/N=C/c1cccc([N+](=O)[O-])c1`, `O=C(OCCN(C1=NS(=O)(=O)c2ccccc21)c1ccc(Cl)cc1)c1ccco1` is lower in “hERG current change (%, negative = inhibition) at 1uM” value: 4.97% for the first, -2.25% for the second.

In the case of `C=CCn1c(C)nnc1SCC(=O)NC1CCCCC1`, the “hERG current change (%, negative = inhibition) at 1uM” value is reported as 6.97%.
